Some of the results follow.
System: PfAP2-HC AP2 domain (GST-tagged)
Assay: gcPBM binding intensity (ln(normalized median fluorescence intensity)); higher = stronger DNA binding
Method in brief: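 The highest Masliner-normalised natural-log median intensity across replicate spots of either probe orientation is reported as binding intensity. GST-tagged P. falciparum DNA-binding domains expressed in E. coli were applied for 1 h to an Agilent 4 × 180k array of primer-extended double-stranded 36-bp intergenic genomic probes plus negative controls, and bound protein was detected with Alexa488 anti-GST antibody and scanned at 488 nm.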

| Sequence | gcPBM binding intensity (ln) |
| --- | --- |
| TTATGAAGCAGACATGCATGTTATGGCTTAAATAAT [TGCATGCA_site492] | 9.65 |
| TTTAAGCAAAAACACACACACATATATATATATATA [CACACA_site349] | 11.1 |
| AAAAAATGATAATATACACACTTATGGGAGAGCGCA [CACACA_site5398] | 9.99 |
| TATAAATATATATACACACACATATATATTATATAT [CACACA_site596] | 10.3 |
| ATTATGTTTCTTTTTTTTTTTAAAGGATGTCTTTTT [CACACA_negctrl_site974] | 9.5 |
| AATATTAAACAAAATAAATATATAAAAAATAAATAA [GTGCAC_negctrl_site93] | 9.77 |
| AAGTTATATTTGTGTACACATAATTTTATACTAATA [CACACA_site5553] | 9.79 |
| TATTTAATACGGACTCATAAATCTTAATAAAAAAAA [CACACA_negctrl_site434] | 9.42 |
| TGATAATAAGCATACACACACACACTAGAAAAAAAA [CACACA_site4558] | 11.5 |
| TGTTCTTTATTTTATTGTACTTTTAAAATTCCTTTA [XGTACX_site8058] | 9.73 |
| TTATTTATAAACATATGTACTAATACATGATTAACA [XGTACX_site7645] | 9.47 |
| GACATATATATAAAATGTACATATATATTTACATAT [XGTACX_site7822] | 9.82 |
| TATAAAAAAAACGAAAAAAAAAAAAAAAATACAGGA [TGCATGCA_negctrl_site585] | 9.82 |
| ATATATTTTTAAAAAAATTAAGAATTTTACATCTCC [CACACA_negctrl_site1450] | 9.32 |
| AAAAAAAAAAGACATGCATACGCTAATTTTTAGTTG [TGCATGCA_site300] | 9.51 |
| TATTATAATAAGAAGTGTACGTGTTTTTATAAATAA [XGTACX_site575] | 9.5 |
| TTACAAAATAAGAGGCACAAACACAAAAAAAAATAA [CACACA_negctrl_site574] | 9.82 |
| AAAAAAAAAAGACACACACACAAAAAAAGATATATA [CACACA_site6645] | 10.7 |
| TAGAATAAGATAGATATACACACCATTATAAATATA [CACACA_site2500] | 9.87 |
| TGTAAAAAATTTAACACACACATATATATATATATA [CACACA_site2585] | 9.76 |
| ATTACAATATATACGTGTACATATTACCACCGCTAC [XGTACX_site2308] | 9.63 |
| ATAAAAATATTACGCACACACAAACTTATTCATTAT [CACACA_site1969] | 10.2 |

| Sequence | gcPBM binding intensity (ln) |
| --- | --- |
| GTAACTTTATTATACTGTACTATTATATAAGCACAC [XGTACX_site2859] | 9.79 |
| TTGTTCAAACAAAAAATAAAATAATTGAAAATAAAA [CACACA_negctrl_site812] | 9.51 |
| AGTTGTTACGAACATACACACGAACATAGACACGGA [CACACA_site8102] | 9.91 |
| TTATTTAAATAATATGTACACACATTTAAAAAATTA [CACACA_site8912] | 9.52 |
| AAAAAAAAATATATAAACACACATATTTATATACAC [GTGCAC_negctrl_site545] | 9.76 |
| ATGAGTGTAATAATATGTACATAACCTACATAATTT [XGTACX_site852] | 9.85 |
| GGATGCACACAAAAGGGTACATAAGAAAAAAACAGG [XGTACX_site8570] | 9.89 |
| CACGCACAGATATATACACACTTTTATTTAAATAAC [CACACA_site6852] | 9.91 |
| AAAAATAAAATGGACACACACGTTCAAATTTAGATT [CACACA_site5186] | 10.1 |
| TGGGTAAACAAACACACACACATATATATATATATA [CACACA_site1992] | 10.3 |
| AAATATATATATAGTTGTACATATATCGTATATATT [XGTACX_site7867] | 9.8 |
| TTCACTAATAAATACGCACACATATACAGATATATA [CACACA_site4887] | 9.94 |
| AAAAAAAATTATTATGAACACACATTTATTATATTC [CACACA_site8443] | 9.7 |
| ATTCTACACAGACATACACACATATATATATATATA [CACACA_site5826] | 9.93 |
| TATATATGTTTATGTAGTACTATATATCCCTTTCTT [XGTACX_site7049] | 9.83 |
| TAATATGATCTTAATAGTACTTTATTAATAATAACC [XGTACX_site1953] | 9.56 |
| GCACACATATAATAATGTACATATATATATTTAAAA [XGTACX_site4561] | 9.86 |
| TATTGATTATTTGAATGTACTTATTATATTAAATAT [XGTACX_site1304] | 9.53 |
| AATAAAAATATTTTTACATGCAAATGTTATATATTT [TGCATGCA_site1056] | 9.56 |
| ACACGCACATATATATAAATATATATATATATAAAT [CACACA_negctrl_site1781] | 10.1 |
| GTGATTAATATATACACACATACATATATATATATA [CACACA_site2817] | 9.81 |
| ATATATATGTATACATGTACATATTTTATTATGTGC [XGTACX_site7207] | 9.89 |

| Sequence | gcPBM binding intensity (ln) |
| --- | --- |
| GGTATACACAAGTATACACACATATAAATATAAATA [CACACA_site7511] | 9.88 |
| TCTTTTAACACATGTGATATTATTTAATAACAATAA [CACACA_negctrl_site339] | 9.55 |
| TGTACATATATATATATATATGTTACTGAAATAAAA [CACACA_negctrl_site1658] | 9.57 |
| AAGAATAACTTTTATACATGCAGCATAATATATTGT [TGCATGCA_site605] | 9.64 |
| CTTTTATAATTCATATGTACTTATTTTTAACATAGG [XGTACX_site7808] | 9.55 |
| AATAACCACAGACACACACACATATAAATATAAATA [CACACA_site7631] | 10.9 |
| TTATTTTATTTAGGGTGTACCCAATTTTTCCATATG [XGTACX_site4957] | 9.54 |
| ACTGTAATATTGAAAGTGCATTAAAGTGTATATTAT [GTGCAC_site9970] | 9.78 |
| ATTTATATTTATAAATGTACACATATATATTTCATT [XGTACX_site2723] | 9.7 |
| TCCTATAATTTTTTAATCAAAATATTTTATCCTTTG [CACACA_negctrl_site793] | 9.6 |
| AAAAATTTTTTACATCGTACAGATATATATAATAAA [XGTACX_site3331] | 9.44 |
| TTACAGATATTTATCTGTACATATATTTAAAAATAT [XGTACX_site7431] | 9.4 |
| TAATTTTTTTAAAAGCGTACATTTAAAAAAAAATAT [XGTACX_site2736] | 9.32 |
| AAAAGTAAAAAAAAAAAAAGTAAAAAAAAAAAAAAA [CACACA_negctrl_site389] | 8.8 |
| TTTTTAAATTCTTTAATATGTTTTATATATCAAAAT [CACACA_negctrl_site75] | 9.44 |
| TCTTATCATTTTAAATCACACACATATATATATATA [CACACA_site8925] | 9.9 |
| ATACATAAATTTTGTACACACAAAAAAAAAAAAGCT [CACACA_site1351] | 9.97 |
| TTTATATATATAAATATGTAGATAACAATATTCTGA [TGCATGCA_negctrl_site554] | 9.47 |
| TTATTCCTTTTCCTTTTTTTTTTTTAACCAAAAAAA [CACACA_negctrl_site309] | 9.4 |
| AAAATATACATATATGCATGCATATAAATAAAAAAA [TGCATGCA_site812] | 9.89 |
| TATATATATTTATGCACACAAAATATATTATAGAAT [CACACA_site3740] | 9.74 |
| AATGTTTATTTTGTTTGTACATAAAATGAATAAAAT [XGTACX_site1456] | 9.49 |

| Sequence | gcPBM binding intensity (ln) |
| --- | --- |
| GTTATATATTTTTATGCATGCATTTTTAAATATATA [TGCATGCA_site175] | 9.73 |
| GTTTTTTTGTTTTAAAGTACTTAAAAAAAAAATATA [XGTACX_site6998] | 9.36 |
| GATAAAACGTTATGCACACGTACGTGAGTATTTATA [CACACA_site1570] | 9.87 |
| AATGATAAATAAAAAGCATGCAACAAATAAAAATAA [TGCATGCA_site453] | 10.1 |
| AACAAAACTTTGGATACATGCAAAATTTTTAAATGA [TGCATGCA_site249] | 9.6 |
| TCATTTTTTTGTTTGGTGCGACTTGAAAATTTGATT | 9.79 |
| TTGTACATCTTTTGCACACGTAATGTTATTATAATA [CACACA_site1258] | 9.87 |
| TTATAACTTTTGAGCACACACAAGCATATAAATATA [CACACA_site6933] | 9.77 |
| AAATACTGTAAAAAAGCATGCCACTAATAATAATTA [TGCATGCA_site759] | 9.71 |
| AGAGAATAAATATAAAGTACATATATAAATATATAT [XGTACX_site5055] | 9.7 |
| ATGTTATAAATCTTAATATATATATGCAAAAGAGAA [XGTACX_negctrl_site521] | 9.69 |
| ACATATACAAAACACACACACAACGTTTTAATAAAT [CACACA_site1979] | 10.7 |
| GTATATAAAAATTCATGTACATATTATTATTTTTAA [XGTACX_site658] | 9.54 |
| ACCTTTGTAGTTGGTCCACACACATATATGGAAGAA [CACACA_site8351] | 9.97 |
| CATACATTTAAAAAGTGTACGTATATGAAAAAAGGA [XGTACX_site6512] | 9.68 |
| ATATGTGTTATTTATACATGCAGAAGAATATCTATT [TGCATGCA_site828] | 9.7 |
| TGTGTGTGTATATGTGTGCACATATAAAATAGAAGA [GTGCAC_site9714] | 10.7 |
| ACATATATATAATATATATATCATCATATTTTCTTA [CACACA_negctrl_site853] | 9.66 |
| CTCAATATTATTACTACACACAAATTAAAATTTTCC [CACACA_site4203] | 9.77 |
| AATAATCATGATCAAAGTACGTATGATTAAAAAAAA [XGTACX_site4916] | 9.76 |
| TATATGTAAATGGACACACACATATATATATATATA [CACACA_site3659] | 9.91 |
